One may read the viability, T/C as the ratio of treated to control. As usually defined, the IC50 is the concentration at which inhibition is half-maximal.

13 compounds from PubChem BioAssay AID1963857 (Molecular Pharmacology Branch, DTP, NCI, 2024) can be followed below.

This test relates to K24384-001-R-PDC KRAS patient-derived spheroid viability. Description: Anticancer human tumor K24384-001-R-PDC patient-derived pancreatic adenocarcinoma cell line growth inhibition [KRAS2]. The settings on record: spheroids with HUVEC and MSC; for viability, T/C: stronger effect = lower value; for IC50: compound alone. From the text:
Multicellular complex tumor spheroid response to RAS pathway inhibitors in combination with a targeted agents in patient-derived cell lines with oncogenic KRAS variants from multiple cancer types
A high-throughput screen of multi-cell type tumor spheroids was designed to identify active combinations of targeted small molecules and KRAS pathway inhibitors. Complex spheroids include a stromal component modeled by human endothelial cells (HUVEC) and fibroblasts modeled by human mesenchymal stem cells (MSCs). The concentration ranges selected for each drug and investigational agent were based upon clinically achievable concentrations if the clinical Cmax of the agent was known.
Compounds. The drugs and investigational agents: BI-3406 (NSC825286), BAY-293 (NSC824723), batoprotafib (TNO155; NSC825523), sotorasib (AMG 510; NSC818433), MRTX1257 (NSC819558), elimusertib (BAY 1895344; NSC800525), molibresib (GSK525762; NSC774829), temuterkib (LY3214996; NSC803410), venetoclax (NSC766270), alisertib (NSC759677), olaparib (NSC753686), talazoparib (NSC767125), erdafitinib (NSC781556), ipatasertib (NSC767898), cabozantinib (NSC761068), nintedanib (NSC756659), abemaciclib (NSC768073), docetaxel (NSC628503), trametinib (NSC758246), and sapanisertib (NSC764658) were obtained from the National Cancer Institute (NCI) Developmental Therapeutics Program Chemical Repository. The FDA-approved anticancer drug set is available from the Developmental Therapeutics Program. […] The stock solutions were prepared in dimethyl sulfoxide (DMSO, Sigma-Aldrich, St. Louis, MO, cat. D2650) at 800-fold the tested concentration and stored at -70 degrees C prior to their use. All drugs and investigational agents were tested over a range starting from a high concentration at or near the clinical Cmax and decreasing in half-log increments. If the clinical Cmax for an agent had not been determined, the highest concentration tested was 10 microM.
Cell Culture. All cells were maintained in an incubator at 37 degrees C and 5% CO2 with 95% humidity. The PDC lines were cultured according to standard operating procedures established by the NCI PDMR (https://pdmr.cancer.gov/sops/default.htm). Briefly, all PDCs were thawed and cultured in Matrigel-coated flasks prepared with a working solution of 1X Ham's F-12 nutrient mix, without supplementation (Invitrogen, Waltham, MA, cat. 11765054), 100 U/mL penicillin-streptomycin (Invitrogen, cat. 15140122), and 2.5% Matrigel (Corning Inc., Corning, NY, cat. 354248) for the first three passages. All PDCs were cultured in complete DMEM/F-12 media containing advanced DMEM/F-12 (Invitrogen, cat. 12634028), 4.9% defined fetal bovine serum, heat inactivated (HyClone Laboratories Inc., Logan, UT, cat. SH30070.03HI), 389 ng/mL hydrocortisone (Sigma-Aldrich, cat. H4001), 9.7 ng/mL human EGF recombinant protein (Invitrogen, cat. PHG0313), 23.4 microg/mL adenine (Sigma-Aldrich, cat. A2786), 97.3 U/mL penicillin-streptomycin (Invitrogen, cat. 15140122), 1.9 mM L-glutamine (Invitrogen, cat. 25030081), and 9.7 microM Y-27632 dihydrochloride (Tocris Bioscience, Bristol, United Kingdom, cat. 1254). The PDCs were cultured in complete DMEM/F12 media without 9.7 microM Y-27632 dihydrochloride for at least two passages prior to the screen. The established cell line HOP-62 was cultured in RPMI 1640 medium, HEPES (Invitrogen, cat. 22400105) with 10% defined fetal bovine serum (HyClone Laboratories Inc., cat. SH30070.03) and 2 mM L-glutamine (Invitrogen, cat. 25030081). The pooled donor HUVEC were cultured in endothelial cell growth medium 2 (PromoCell, Heidelberg, Germany, cat. C-22011) and the hMSC were cultured in mesenchymal stem cell growth medium 2 (PromoCell, cat. C-28009). For all experiments, HUVEC and hMSC were used at passages </=5, while the malignant cell lines were used at passages </=15. […]

A number of entries come with more than one value. This list holds those alone. There may be further records. The values listed for one entry repeat one measurement in other runs, samples, wells, individuals or studies. Marks such as [2022-09] give the month of the run. Marks such as (2×) stand for listed records that agree.
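Note: spheroids exposed to agents for 7 days before readout.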

Consider `C=CC(=O)N1CCN(c2nc(=O)n(-c3c(C)ccnc3C(C)C)c3nc(-c4c(O)cccc4F)c(F)cc23)C(C)C1` (stereo unspecified), for which the viability, T/C reads like this: (compound alone 0.1 µM) 118, 97.4, 98.8 (2×), 115, 104, 109 (2×), 105, 91.5, 88.3% [2021-08] and 85.9, 103 (2×), 101, 108, 104% [2021-09]; (compound alone 0.316 µM) 111, 114, 101 (2×), 95, 105, 131, 108, 103, 94.1, 94.9% [2021-08] and 98, 100, 93.6, 101, 98.2, 98.9% [2021-09]; (compound alone 1 µM) 90.8, 110, 102, 94, 104, 114, 107, 91.2, 93.8, 109, 100% [2021-08] and 83.9, 92.6, 89.4, 99.6, 115, 104% [2021-09]; (compound alone 3.16 µM) 77.5, 106, 89.5, 125, 83.8, 87.5, 84.8, 103, 86.6, 90.2, 89.6% [2021-08] and 76, 102 (2×), 74.5, 107, 52.8% [2021-09]; (compound alone 10 µM) 71.1, 70, 73, 114, 59.7, 61.7, 42.7, 43.6, 52.2, 47.7, 57.3% [2021-08] and 46.9, 48.3, 46, 64.9, 72.8, 40.1% [2021-09]. For the same compound, the IC50 was 8.19 µM, 8.78 µM, > 10 µM, 9.37 µM (run of 08/26/2021) and 8.83 µM, 9.63 µM, 8.62 µM, > 10 µM, 4.05 µM (run of 09/02/2021).
Turning to `CC1OCC2(CCN(c3cnc(Sc4ccnc(N)c4Cl)c(N)n3)CC2)C1N` (stereo unspecified), the viability, T/C by setting is: (compound alone 0.1 µM) 57.4, 87.8, 74.7, 77.6, 88.5, 83.7, 85.7, 81.1, 76.6, 71, 73.2% [2021-08] and 80.8, 93.8, 75.9, 76, 81.1, 84.9, 73.7, 78.1% [2021-09]; (compound alone 0.316 µM) 62.4, 89.5, 86.5, 66.5, 72.6, 72, 78.7, 76.4, 69.1, 62.5, 60.5% [2021-08] and 65.8, 81, 73.7, 74.6, 65.3, 69.1, 52.5, 73% [2021-09]; (compound alone 1 µM) 100, 108, 105, 62.6, 56.4, 67.3, 68.8, 72.1, 64.6, 69.7, 73.4% [2021-08] and 82.5, 61.2, 58.8, 69.9, 55.8, 73.7, 49.7, 79.6% [2021-09]; (compound alone 3.16 µM) 56.8, 76.7, 62.6, 51.4, 58.8, 64, 65.1, 67.4, 71.2, 59.4, 55.5% [2021-08] and 59.6, 75, 56.2, 62.8, 70.2, 78.9, 42.5, 66.7, 55.3% [2021-09]; (compound alone 10 µM) 62.9, 107, 71.1, 56.5, 64.3, 78, 70.9, 93.7, 76.9, 62.2, 55.7% [2021-08] and 62.3, 57.2, 61.1, 63.6, 62, 68, 46.5, 71.8, 64.6% [2021-09]. The IC50 (run of 09/02/2021) is > 10 µM and 593 nM.
For `COc1cc2nc(C)nc(NC(C)c3cc(N)cc(C(F)(F)F)c3)c2cc1OC1CCOC1` (stereo unspecified), the viability, T/C was 89.5, 103 (2×), 75.3, 76.1, 94.1, 98.6, 87.5, 95, 96.1, 86.8% [2021-08] and 76.1, 81.4, 94.9, 86.6, 74.9% [2021-09] (compound alone 0.316 µM); 90.8, 102, 93.1 (2×), 83, 90.6, 99.5, 101, 96.1, 95.7, 93.3% [2021-08] and 87.5, 89.3, 107, 89, 66.5% [2021-09] (compound alone 1 µM); 93.3, 96.3, 66.1, 90.8, 102 (2×), 101, 95.5, 99.1, 93.2, 84.8% [2021-08] and 92.6, 105, 108, 99.9, 66.4% [2021-09] (compound alone 3.16 µM); 111, 114, 86.4, 89.9, 106, 99.8, 73.8, 117, 97.1, 79.4, 75.1% [2021-08] and 111, 116, 114, 117, 82.1% [2021-09] (compound alone 10 µM).
In the case of `CC1COCCN1c1cc(-c2ccnn2C)c2ccnc(-c3ccn[nH]3)c2n1` (stereo unspecified), under “compound alone 0.01 µM”, the viability, T/C is given as 87.8, 93.8, 86.1, 113%.
As for `CC1(C)CCC(CN2CCN(c3ccc(C(=O)NS(=O)(=O)c4ccc(NCC5CCOCC5)c([N+](=O)[O-])c4)c(Oc4cnc5[nH]ccc5c4)c3)CC2)=C(c2ccc(Cl)cc2)C1`, under “compound alone 3.16 µM”, the viability, T/C is given as 46.4, 35.8, 66.7, 92.9, 50.6%.
For `COC(=O)c1ccc2c(C(=Nc3ccc(N(C)C(=O)CN4CCN(C)CC4)cc3)c3ccccc3)c(O)[nH]c2c1`, the viability, T/C is listed as 73.6, 75.7, 122, 116, 119% (compound alone 0.316 µM); 86.2, 74.7, 125, 113, 114% (compound alone 1 µM); 68.7, 62.8, 95.2, 84.9, 82.7% (compound alone 3.16 µM).
For `C=CC(=O)N1CCN(c2nc(OCC3CCCN3C)nc3c2CCN(c2cccc4cccc(C)c24)C3)CC1CC#N` (stereo unspecified), the viability, T/C runs as follows: (compound alone 0.0316 µM) 106, 114, 110 (2×), 98, 92.7, 112, 89.9, 107, 90.2, 99.4% [2021-08] and 118, 93.6, 110, 94.6, 95% [2021-09]; (compound alone 0.1 µM) 111, 102, 95.5, 109 (2×), 114, 89.9, 99, 86.9, 97.7, 89.6% [2021-08] and 108, 80.9, 98.6, 82.2, 105% [2021-09]; (compound alone 0.316 µM) 106, 109, 101, 97.8, 121, 96.2, 105, 80.6, 96, 111, 93.2% [2021-08] and 131, 93.7, 93.3, 65.8, 87.4% [2021-09]; (compound alone 1 µM) 131, 108, 95.2, 88.5, 122, 85, 97.1, 82.1, 93.8, 80, 106% [2021-08] and 101, 82.8, 84.5, 67.3, 89.2% [2021-09]; (compound alone 3.16 µM) 122, 19.1, 33.2, 27.7, 11, 14.4, 0.62, 8.46, 0.35, 0.57, 12.4% [2021-08] and 0.48, 10.9, 4.99, 0.47, 0.3% [2021-09]. For the same compound, the IC50 (run of 08/19/2021) is on record as > 3.16 µM, 2.12 µM, 2.32 µM, 2.07 µM, 1.78 µM.
As for `CN(C)C/C=C/C(=O)Nc1cc2c(Nc3ccc(F)c(Cl)c3)ncnc2cc1O[C@H]1CCOC1`, the viability, T/C runs as follows: (compound alone 0.000316 µM) 130, 99.9, 137, 110, 93.2%; (compound alone 0.00316 µM) 123, 88.1, 104, 94.2, 88%.
Regarding `COc1cc(Nc2ncc3c(n2)-c2ccc(Cl)cc2C(c2c(F)cccc2OC)=NC3)ccc1C(=O)O`, the viability, T/C by setting is: (compound alone 0.0316 µM) 72.2, 67.8, 75.8, 99.3, 79.5%; (compound alone 0.1 µM) 68.2, 60, 60.4, 101, 81.7%; (compound alone 0.316 µM) 50.2, 41.9, 52.3, 90.2, 53.3%; (compound alone 1 µM) 54.6, 44.2, 59.3, 105, 63.4%; (compound alone 3.16 µM) 56.9, 55.7, 57.4, 101, 68.5%; (compound alone 10 µM) 61.9, 62.9, 69.6, 86.3, 89.6%.
As for `CC(C)n1nc(-c2ccc3oc(N)nc3c2)c2c(N)ncnc21`, the IC50 was 4.85, 7.49, 13.5, 11.7, 21.6 nM. The viability, T/C (compound alone 0.001 µM) is given as 79.2, 110, 98.7, 92.9, 83.3%.
Take `COc1cc(OC)cc(N(CCNC(C)C)c2ccc3ncc(-c4cnn(C)c4)nc3c2)c1`: the viability, T/C (compound alone 0.1 µM) is recorded as 135, 99.6, 103, 121, 118%.
Turning to `CCNC(=O)CC1N=C(c2ccc(Cl)cc2)c2cc(OC)ccc2-n2c(C)nnc21` (stereo unspecified), the IC50 is listed as 3.51 µM, > 10 µM, 3.28 µM, 9.3 µM, 6.19 µM. Further, the viability, T/C (compound alone 0.1 µM) was 106, 84.2, 79.6, 89.5, 86.1%.
As to `CNCc1ccccc1-c1csc(C(C)Nc2nc(C)nc3cc(OC)c(OC)cc23)c1` (stereo unspecified), the viability, T/C (compound alone 0.1 µM) is 100, 107, 89.4, 102, 108 (2×), 90.3, 97.3, 99.7, 97.1, 95% [2021-08] and 89.9, 79.9, 89.7, 102, 94, 98.5% [2021-09]; the viability, T/C (compound alone 0.316 µM) was 101, 111, 86, 83, 115, 95.1, 80.3, 107, 99.9, 84.5, 100% [2021-08] and 88.5, 64.5, 61.8, 90.2, 87.2, 67.3% [2021-09]; the viability, T/C (compound alone 1 µM) is 110, 114, 77.3, 87.4, 113, 86.6, 84.4, 99.8, 105, 96.6, 82.6% [2021-08] and 92.2, 74.1, 77.4, 105, 92.3, 81.6% [2021-09]; the viability, T/C (compound alone 3.16 µM) is 103, 0.91, 0.15, 0.17, 0.19, 0.13, 0.35, 0.14, 0.34, 0.41% [2021-08] and 0.15, 0.14, 0.2, 0.18% [2021-09]. Also, the IC50 (run of 08/19/2021) was 1.64 µM and 5.74, 1.89, 1.5, 1.63 µM [2021-08].
